# Reference: the supplement of paper PMC10369915
# Some of the results follow. Rule as the data show it: active = 3.2 or more and inactive = the rest. Only a few entries rise above the background.
# Target: SHP2 C-SH2 domain E139D
# Assay: enrichment score (SH2-bound / input frequency) (ratio); bacterial display of known human phosphotyrosine sites (pTyr-Var adds point mutants) read by sequencing; higher = stronger binding; tyrosines were phosphorylated by kinases first
# Conditions: peptide library: pTyr-Var
# 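Also: displayed peptides selected on beads carrying the immobilized SH2 domain, with library peptides lacking any tyrosine serving as negative controls.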
row,Binder,enrichment score
1,VFAPDYIAGVS [NOB1_Y366],inactive: 1.06
2,TEAEPYFRSLR [NPHS1_Y1138_YF],inactive: 0.505
3,WIPIQDPIISE [NOG_Y222_Y222D],inactive: 1.38
4,TEAEPYYRSLR [NPHS1_Y1138],inactive: 0.603
5,IDAVCYFRMEN [NPHS2_Y194_I192V_YF],inactive: 1.54
6,GHGEEYPVAGA [NOTCH3_Y2221_A2223V],inactive: 0.462
7,DYLEKYYKFGC [NNMT_Y24_S29C],inactive: 1.22
8,IDAVCYYRMEN [NPHS2_Y194_I192V],inactive: 0.923
9,CLEKEYFDQHF [NPC1_Y394_R389C],inactive: 1.03
10,FTAVGYHKHFT [NOMO1_Y1137_I1141F],active: 3.87
11,FTAVGYHKHIT [NOMO1_Y1137],inactive: 2.81
12,RFWPRYVKVGS [NOG_Y172],inactive: 0.463
13,WIPIQYPIISE [NOG_Y222],inactive: 1.66
14,IDAICYFRMEN [NPHS2_Y194_YF],inactive: 1.87
15,WIPNQYPIISE [NOG_Y222_I220N],inactive: 1.28
16,DAICYYRMENA [NPHS2_Y195],inactive: 1.09
17,YLEKYYKFGSR [NNMT_Y25],inactive: 0.96
18,NVVQEYERVII [NPHS2_Y131_K126N],inactive: 0.882
19,DFLEKYFKFGC [NNMT_Y24_S29C_YF],inactive: 1.14

# Target: SHP2 C-SH2 domain wild-type
# Assay: as above
# Conditions: peptide library: pTyr-Var
row,Binder,enrichment score
1,VFAPDYIAGVS [NOB1_Y366],inactive: 1.09
2,TEAEPYFRSLR [NPHS1_Y1138_YF],inactive: 0.519
3,WIPIQDPIISE [NOG_Y222_Y222D],inactive: 1.27
4,TEAEPYYRSLR [NPHS1_Y1138],inactive: 0.51
5,IDAVCYFRMEN [NPHS2_Y194_I192V_YF],inactive: 2.05
6,GHGEEYPVAGA [NOTCH3_Y2221_A2223V],inactive: 0.377
7,DYLEKYYKFGC [NNMT_Y24_S29C],inactive: 1.46
8,IDAVCYYRMEN [NPHS2_Y194_I192V],inactive: 1.28
9,CLEKEYFDQHF [NPC1_Y394_R389C],inactive: 1.02
10,FTAVGYHKHFT [NOMO1_Y1137_I1141F],inactive: 3.14
11,FTAVGYHKHIT [NOMO1_Y1137],inactive: 2.33
12,RFWPRYVKVGS [NOG_Y172],inactive: 0.37
13,WIPIQYPIISE [NOG_Y222],inactive: 1.58
14,IDAICYFRMEN [NPHS2_Y194_YF],inactive: 2.24
15,WIPNQYPIISE [NOG_Y222_I220N],inactive: 1.14
16,DAICYYRMENA [NPHS2_Y195],inactive: 1.33
17,YLEKYYKFGSR [NNMT_Y25],inactive: 0.644
18,NVVQEYERVII [NPHS2_Y131_K126N],inactive: 0.8
19,DFLEKYFKFGC [NNMT_Y24_S29C_YF],inactive: 1.46

# Target: SHP2 N-SH2 domain L43F
# Assay: as above
# Conditions: peptide library: pTyr-Var
row,Binder,enrichment score
1,VFAPDYIAGVS [NOB1_Y366],inactive: 1.24
2,TEAEPYFRSLR [NPHS1_Y1138_YF],inactive: 0.569
3,WIPIQDPIISE [NOG_Y222_Y222D],inactive: 1.43
4,TEAEPYYRSLR [NPHS1_Y1138],inactive: 0.514
5,IDAVCYFRMEN [NPHS2_Y194_I192V_YF],inactive: 1.62
6,GHGEEYPVAGA [NOTCH3_Y2221_A2223V],inactive: 0.369
7,DYLEKYYKFGC [NNMT_Y24_S29C],inactive: 1.02
8,IDAVCYYRMEN [NPHS2_Y194_I192V],inactive: 0.929
9,CLEKEYFDQHF [NPC1_Y394_R389C],inactive: 0.916
10,FTAVGYHKHFT [NOMO1_Y1137_I1141F],active: 3.34
11,FTAVGYHKHIT [NOMO1_Y1137],inactive: 2.05
12,RFWPRYVKVGS [NOG_Y172],inactive: 0.354
13,WIPIQYPIISE [NOG_Y222],inactive: 2.21
14,IDAICYFRMEN [NPHS2_Y194_YF],inactive: 2.01
15,WIPNQYPIISE [NOG_Y222_I220N],inactive: 1.3
16,DAICYYRMENA [NPHS2_Y195],inactive: 1.04
17,YLEKYYKFGSR [NNMT_Y25],inactive: 0.731
18,NVVQEYERVII [NPHS2_Y131_K126N],inactive: 0.793
19,DFLEKYFKFGC [NNMT_Y24_S29C_YF],inactive: 1.17

# Target: SHP2 N-SH2 domain T42A
# Assay: as above
# Conditions: peptide library: pTyr-Var
row,Binder,enrichment score
1,VFAPDYIAGVS [NOB1_Y366],inactive: 0.863
2,TEAEPYFRSLR [NPHS1_Y1138_YF],inactive: 0.493
3,WIPIQDPIISE [NOG_Y222_Y222D],inactive: 1.25
4,TEAEPYYRSLR [NPHS1_Y1138],inactive: 0.45
5,IDAVCYFRMEN [NPHS2_Y194_I192V_YF],inactive: 1.84
6,GHGEEYPVAGA [NOTCH3_Y2221_A2223V],inactive: 0.39
7,DYLEKYYKFGC [NNMT_Y24_S29C],inactive: 1.15
8,IDAVCYYRMEN [NPHS2_Y194_I192V],inactive: 0.848
9,CLEKEYFDQHF [NPC1_Y394_R389C],inactive: 0.958
10,FTAVGYHKHFT [NOMO1_Y1137_I1141F],inactive: 2.97
11,FTAVGYHKHIT [NOMO1_Y1137],inactive: 2.29
12,RFWPRYVKVGS [NOG_Y172],inactive: 0.567
13,WIPIQYPIISE [NOG_Y222],inactive: 1.84
14,IDAICYFRMEN [NPHS2_Y194_YF],inactive: 1.67
15,WIPNQYPIISE [NOG_Y222_I220N],inactive: 1.3
16,DAICYYRMENA [NPHS2_Y195],inactive: 0.939
17,YLEKYYKFGSR [NNMT_Y25],inactive: 0.534
18,NVVQEYERVII [NPHS2_Y131_K126N],inactive: 0.667
19,DFLEKYFKFGC [NNMT_Y24_S29C_YF],inactive: 0.911

# Target: SHP2 N-SH2 domain T52S
# Assay: as above
# Conditions: peptide library: pTyr-Var
row,Binder,enrichment score
1,VFAPDYIAGVS [NOB1_Y366],inactive: 0.986
2,TEAEPYFRSLR [NPHS1_Y1138_YF],inactive: 0.59
3,WIPIQDPIISE [NOG_Y222_Y222D],inactive: 1.38
4,TEAEPYYRSLR [NPHS1_Y1138],inactive: 0.438
5,IDAVCYFRMEN [NPHS2_Y194_I192V_YF],inactive: 1.78
6,GHGEEYPVAGA [NOTCH3_Y2221_A2223V],inactive: 0.523
7,DYLEKYYKFGC [NNMT_Y24_S29C],inactive: 1.03
8,IDAVCYYRMEN [NPHS2_Y194_I192V],inactive: 0.7
9,CLEKEYFDQHF [NPC1_Y394_R389C],inactive: 0.836
10,FTAVGYHKHFT [NOMO1_Y1137_I1141F],active: 4.1
11,FTAVGYHKHIT [NOMO1_Y1137],inactive: 2.43
12,RFWPRYVKVGS [NOG_Y172],inactive: 0.411
13,WIPIQYPIISE [NOG_Y222],inactive: 2.48
14,IDAICYFRMEN [NPHS2_Y194_YF],inactive: 1.75
15,WIPNQYPIISE [NOG_Y222_I220N],inactive: 1.19
16,DAICYYRMENA [NPHS2_Y195],inactive: 0.897
17,YLEKYYKFGSR [NNMT_Y25],inactive: 0.736
18,NVVQEYERVII [NPHS2_Y131_K126N],inactive: 0.816
19,DFLEKYFKFGC [NNMT_Y24_S29C_YF],inactive: 0.842

# Target: SHP2 N-SH2 domain wild-type
# Assay: as above
# Conditions: peptide library: pTyr-Var
row,Binder,enrichment score
1,VFAPDYIAGVS [NOB1_Y366],inactive: 1.12
2,TEAEPYFRSLR [NPHS1_Y1138_YF],inactive: 0.455
3,WIPIQDPIISE [NOG_Y222_Y222D],inactive: 1.15
4,TEAEPYYRSLR [NPHS1_Y1138],inactive: 0.563
5,IDAVCYFRMEN [NPHS2_Y194_I192V_YF],inactive: 1.78
6,GHGEEYPVAGA [NOTCH3_Y2221_A2223V],inactive: 0.462
7,DYLEKYYKFGC [NNMT_Y24_S29C],inactive: 1.51
8,IDAVCYYRMEN [NPHS2_Y194_I192V],inactive: 1.35
9,CLEKEYFDQHF [NPC1_Y394_R389C],inactive: 0.944
10,FTAVGYHKHFT [NOMO1_Y1137_I1141F],inactive: 3.01
11,FTAVGYHKHIT [NOMO1_Y1137],inactive: 2.72
12,RFWPRYVKVGS [NOG_Y172],inactive: 0.385
13,WIPIQYPIISE [NOG_Y222],inactive: 1.75
14,IDAICYFRMEN [NPHS2_Y194_YF],inactive: 2.74
15,WIPNQYPIISE [NOG_Y222_I220N],inactive: 1.21
16,DAICYYRMENA [NPHS2_Y195],inactive: 1.86
17,YLEKYYKFGSR [NNMT_Y25],inactive: 0.706
18,NVVQEYERVII [NPHS2_Y131_K126N],inactive: 0.814
19,DFLEKYFKFGC [NNMT_Y24_S29C_YF],inactive: 1.05
